# Experimental data as given in the supplement of paper PMC12217912.
# This is one part of the list. The full chains were built here from the parent and the listed change. Values near 0.05 are background.
# B1: TEV protease; numbered along this chain (parent)
# chain: MGESLFKGPRDYNPISSSICHLTNESDGHTTSLYGIGFGPFIITNKHLFRRNNGTLVVQSLHGVFKVKDTTTLQQHLVDGRDMIIIRMPKDFPPFPQKLKFREPQREERICLVTTNFQTKSMSSMVSDTSCTFPSGDGIFWKHWIQTKDGQCGSPLVSTRDGFIVGIHSASNFTNTNNYFTSVPKNFMELLTNQEAQQWVSGWRLNADSVLWGGHKVFMVKPEEPFQPVKEATQL
# Variants of: B1
# Assay: raw area under fraction-flipped curve 0-4 h after induction (AUC4h, not background-subtracted), DNA-recorder readout of cleavage of the substrate (dimensionless); higher = more cleavage of the substrate by the protease variant
# Conditions: temperature: 34 °C; time window: 0-4 h after rhamnose induction
# Protocol: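 In vivo DNA recorder in E. coli TOP10(DE3) ΔrhaA at 34 °C. Each TEVp single-site mutant (parent TEVp 0) is paired with a single-site variant of the 7-mer TEVs (canonical ENLYFQ|S). The substrate sits between flexible linkers in a Bxb1-sfGFP-TEVs-SsrA fusion, so cleavage stabilises Bxb1 and speeds flipping of a recombination array, read by NGS. The value is the raw area under the fraction-flipped curve over 0-4 h after rhamnose induction (AUC4h), with ≥20 reads per time point. It is not background-subtracted; inactive controls average about 0.047.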
# 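Note: Bxb1 expression induced with 0.2% (w/v) L-rhamnose at OD600 near 0.5, cultures sampled hourly, flipped fraction per protease–substrate barcode pair counted by paired-end Illumina sequencing.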
Variant,area with substrate ENLYAQS,area with substrate ENLYDQS,area with substrate ENLYHQS,area with substrate ENLYPQS,area with substrate ENLYRQS,area with substrate ENLYVQS,area with substrate ENLYWQS,area with substrate ENLYCQS,area with substrate ENLYEQS,area with substrate ENLYGQS,area with substrate ENLYIQS,area with substrate ENLYKQS,area with substrate ENLYMQS,area with substrate ENLYNQS,area with substrate ENLYQQS,area with substrate ENLYSQS,area with substrate ENLYTQS,area with substrate ENLYLQS,area with substrate ENLYYQS
MGESLFKGNRDYNPISSSICHLTNESDGHTTSLYGIGFGPFIITNKHLFRRNNGTLVVQSLHGVFKVKDTTTLQQHLVDGRDMIIIRMPKDFPPFPQKLKFREPQREERICLVTTNFQTKSMSSMVSDTSCTFPSGDGIFWKHWIQTKDGQCGSPLVSTRDGFIVGIHSASNFTNTNNYFTSVPKNFMELLTNQEAQQWVSGWRLNADSVLWGGHKVFMVKPEEPFQPVKEATQL [P9N],0.063,0.0666,0.067,0.0911,0.0851,0.115,0.0947,–,–,–,–,–,–,–,–,–,–,–,–
MGESLFKGPRDYNPISSGICHLTNESDGHTTSLYGIGFGPFIITNKHLFRRNNGTLVVQSLHGVFKVKDTTTLQQHLVDGRDMIIIRMPKDFPPFPQKLKFREPQREERICLVTTNFQTKSMSSMVSDTSCTFPSGDGIFWKHWIQTKDGQCGSPLVSTRDGFIVGIHSASNFTNTNNYFTSVPKNFMELLTNQEAQQWVSGWRLNADSVLWGGHKVFMVKPEEPFQPVKEATQL [S18G],0.0717,0.0723,0.062,0.074,0.0897,0.089,0.075,0.0824,0.0725,0.055,0.123,0.0188,0.0712,0.0637,0.0556,0.0403,0.0803,–,–
MGESLFKGPRDYNPISSSICHLTNESDGHDTSLYGIGFGPFIITNKHLFRRNNGTLVVQSLHGVFKVKDTTTLQQHLVDGRDMIIIRMPKDFPPFPQKLKFREPQREERICLVTTNFQTKSMSSMVSDTSCTFPSGDGIFWKHWIQTKDGQCGSPLVSTRDGFIVGIHSASNFTNTNNYFTSVPKNFMELLTNQEAQQWVSGWRLNADSVLWGGHKVFMVKPEEPFQPVKEATQL [T30D],0.0759,0.0463,0.0637,–,0.0758,0.107,0.0751,–,0.0782,0.0723,0.108,0.059,0.103,0.0494,–,–,0.0757,–,–
MGESLFKGPRDYNPISSSICHLTNESDGHTTSLYGIGFGPFIITNKHLFRRNNGTLVVRSLHGVFKVKDTTTLQQHLVDGRDMIIIRMPKDFPPFPQKLKFREPQREERICLVTTNFQTKSMSSMVSDTSCTFPSGDGIFWKHWIQTKDGQCGSPLVSTRDGFIVGIHSASNFTNTNNYFTSVPKNFMELLTNQEAQQWVSGWRLNADSVLWGGHKVFMVKPEEPFQPVKEATQL [Q59R],0.0941,0.0522,–,0.0691,0.0703,–,0.104,–,0.069,–,0.129,0.0436,0.0709,0.0671,–,0.0575,–,–,–
MGESLFKGPRDYNPISSSICHLTNESDGHTTSLYGIGFGPFIITNKHLFRRNNGTLVVNSLHGVFKVKDTTTLQQHLVDGRDMIIIRMPKDFPPFPQKLKFREPQREERICLVTTNFQTKSMSSMVSDTSCTFPSGDGIFWKHWIQTKDGQCGSPLVSTRDGFIVGIHSASNFTNTNNYFTSVPKNFMELLTNQEAQQWVSGWRLNADSVLWGGHKVFMVKPEEPFQPVKEATQL [Q59N],0.0924,0.0718,0.0684,0.0789,–,–,0.0802,0.0566,–,–,0.114,0.0676,–,0.0447,–,0.0444,–,0.071,–
MGESLFKGPRDYNPISSSICHMTNESDGHTTSLYGIGFGPFIITNKHLFRRNNGTLVVQSLHGVFKVKDTTTLQQHLVDGRDMIIIRMPKDFPPFPQKLKFREPQREERICLVTTNFQTKSMSSMVSDTSCTFPSGDGIFWKHWIQTKDGQCGSPLVSTRDGFIVGIHSASNFTNTNNYFTSVPKNFMELLTNQEAQQWVSGWRLNADSVLWGGHKVFMVKPEEPFQPVKEATQL [L22M],0.0703,0.0551,0.0724,0.0723,0.0605,–,0.0742,–,0.0641,0.0677,–,0.0574,0.0833,0.0637,0.062,0.067,0.0761,0.0752,0.0509
MGESLFKGPRDYNPISSSICHLTNESEGHTTSLYGIGFGPFIITNKHLFRRNNGTLVVQSLHGVFKVKDTTTLQQHLVDGRDMIIIRMPKDFPPFPQKLKFREPQREERICLVTTNFQTKSMSSMVSDTSCTFPSGDGIFWKHWIQTKDGQCGSPLVSTRDGFIVGIHSASNFTNTNNYFTSVPKNFMELLTNQEAQQWVSGWRLNADSVLWGGHKVFMVKPEEPFQPVKEATQL [D27E],0.083,0.0797,–,0.0882,0.0566,–,0.0436,0.113,0.0549,0.0764,0.117,0.0539,–,0.0704,–,–,0.0827,–,–
MGESLFKGPRDYNPISSSICHLTNESDGHTTSLYGIGFGPFIITNKHLFRRNLGTLVVQSLHGVFKVKDTTTLQQHLVDGRDMIIIRMPKDFPPFPQKLKFREPQREERICLVTTNFQTKSMSSMVSDTSCTFPSGDGIFWKHWIQTKDGQCGSPLVSTRDGFIVGIHSASNFTNTNNYFTSVPKNFMELLTNQEAQQWVSGWRLNADSVLWGGHKVFMVKPEEPFQPVKEATQL [N53L],0.0448,0.0558,0.0459,–,–,0.134,0.0655,–,0.0627,0.0555,–,–,–,0.0648,–,–,–,–,–
